The RNAGym collection of RNA variant scans (doi:10.7554/elife.90254)
Read counts are not given, so values of variants with three or more changes are uncertain.

B1: LINE1-mini (parent)
chain: GGCAGAGCUCAACACAGCGUGGCAAAGUGGCUGUGGCUAGACUGCC

Variants of: B1
Assay: self-cleavage, relative activity (ratio to wild type); higher = more cleavage; in vitro, sequencing; the parent is a self-cleaving ribozyme

| Variant | self-cleavage |
| --- | --- |
| C8A U9G C31A U32A | 0.06 |
| C8G A26G G35A | 0.09 |
| C8A U9C C18U | 0.05 |
| C8G A25U G35A C37U G44U | 0.01 |
| C8G A11G U32C G44C | 0.03 |
| C8G C31U A41U | 0.04 |
| C8G A16U G40A C42U C45U | 0.01 |
| C8G C13G C15U C37U G40C A41G | 0.14 |
| C8G U9A C23U | 0.11 |
| C8U A16G G22U | 0.51 |
| C8G C15A G22U C31U U38A U43A | 0.01 |
| C8G A26C G30A G36A | 0.04 |
| C8A U9G A12C C42U | 0.17 |
| C8U C10A C23U G30C G40C | 0.01 |
| C8A U28A G33U | 0.1 |
| C8A U20A C46U | 0.17 |
| C8G C13A C23U C37G | 0.11 |
| C8G G27C G29U | 0.15 |
| C8G C15A G27C G33A | 0.02 |
| C8G C13A G19C C23A | 0.04 |
| C8U A11C C13U C31U U32G G35U | 0.03 |
| C8A G19U C46G | 0.15 |
| C8U A16U U32A | 0.29 |
| C8G G22C C31U | 0.06 |

| Variant | self-cleavage |
| --- | --- |
| C8G A14C G27U A41G C46U | 0.04 |
| C8U C13U G29A G40C G44C | 0.06 |
| C8G A26C G33A A41U | 0.17 |
| C8A U34C C45U | 0.31 |
| C8G U9A C18U A39C | 0.21 |
| C8A U9A G19U | 0.12 |
| C8A G21U U28G C37G | 0.07 |
| C8G G21C G29C C37G A39C | 0.01 |
| C8G C18A G21U A25G C31G C45A | 0.01 |
| C8U A16U C23A G40U | 0.03 |
| C8A G17A C31A G36U | 0.15 |
| C8G A12U C18U | 0.01 |
| C8A G21U G33C | 0.07 |
| C8G G36C A39G C42U | 0.04 |
| C8A G21A A41G G44A | 0.11 |
| C8A G22U C45U | 0.26 |
| C8G C13A A14G C15G G17A | 0.04 |
| C8A U9C C37U C45U | 0.12 |
| C8A U34A C37U | 0.07 |
| C8A C18U A26U U32C G36A | 0.24 |
| C8U A11U G33C | 0 |
| C8G A25G U34G | 0.02 |
| C8U C13G G44C | 0.1 |
| C8G G35U C37G | 0.02 |

| Variant | self-cleavage |
| --- | --- |
| C8G A14C G17U G22U G40C | 0.01 |
| C8A G21U G22C C42G | 0.3 |
| C8U A26C G30A | 0.69 |
| C8G G17A C18G U28G A39U | 0.05 |
| C8G C18A A26C G36U A41U C42G | 0.04 |
| C8G C13U C15U G21A | 0.07 |
| C8G A26C C37U | 0.03 |
| C8G C10A A26U U28C | 0.01 |
| C8G C15A C18G G40C A41C | 0.01 |
| C8G C15A C23A | 0.01 |
| C8G C15A U38A A41G | 0.02 |
| C8G A12G C37A C42A | 0.15 |
| C8U C13U G27C U28C | 0.38 |
| C8G C42U C46G | 0.06 |
| C8G C18U U38C | 0.06 |
| C8G U34G C45A | 0.04 |
| C8G A11G A12C C15A | 0 |
| C8U A24U U28C G30U U38A | 0.04 |
| C8U A12C C42G | 0 |
| C8G U28A U34A | 0.05 |
| C8A G27C C31A C46U | 0.16 |
| C8G A12U G36C | 0.13 |
| C8G U9G G40C | 0.01 |
| C8A G17U A26U G27U | 0.26 |

| Variant | self-cleavage |
| --- | --- |
| C8U A14C C23A C42A | 0.22 |
| C8U C13U C18U C23U G29U C45U | 0.25 |
| C8U C13A A26C | 0.04 |
| C8U A26U G29A | 0.03 |
| C8G A25G U28A | 0.17 |
| C8A G21U G44U | 0.1 |
| C8G G21C C31G | 0.02 |
| C8A G29C C45G | 0.01 |
| C8U A26U G40A | 0.2 |
| C8G G19C U20A G29C C31G G33A U34A C37A G40C | 0 |
| C8G G30C C31G | 0.04 |
| C8G G22C C37G U43C | 0.01 |
| C8U A11U C15U C18G A25G A26C | 0 |
| C8A G27U G33U | 0.24 |
| C8G C13G C18A | 0.03 |
| C8G C18G G27A C37G A41G | 0.01 |
| C8A U9G G19U | 0.03 |
| C8A G19C A25U G29U C46A | 0.29 |
| C8A G22U A41U | 1.24 |
| C8A G17A G21A G29A G30C G44C | 0.11 |
| C8A G21C C37U | 0.04 |
| C8U A16U A25U | 0.04 |
| C8A G21U C45U | 0.18 |
| C8G G40A A41U | 0.11 |

| Variant | self-cleavage |
| --- | --- |
| C8U C10U A39G G40A | 0.01 |
| C8G C13U C31G | 0.03 |
| C8A U20G G44C C46A | 0.08 |
| C8A C23G U28C U34C C42G | 0.16 |
| C8U A11G G30U | 0.01 |
| C8A U28G C37A G40C | 0.02 |
| C8G U20A C23U A24U | 0.08 |
| C8G C10U U32A G35C A41G C42U | 0.04 |
| C8A U20A G22U G27U | 0.21 |
| C8U C10U G17U U28G G33A | 0.04 |
| C8G A14G C15A G35A | 0.08 |
| C8G C15G U28C G30A U32G G33U G35A | 0.07 |
| C8A G22A C23G G29A C31U G44U | 0.14 |
| C8U C10A A24U A26G | 0.02 |
| C8G G19C G30C | 0.28 |
| C8G C15A C46U | 0.02 |
| C8U A12C G19U G33A U38G | 0.01 |
| C8U C10A A39U | 0.03 |
| C8A G22U U34A U38G | 0.03 |
| C8G A16G G33A C46U | 0.03 |
| C8U A26U G33A C46U | 0.12 |
| C8G U32A G33U A39U G44U | 0.06 |
| C8U A16G U28C | 0.11 |
| C8U C13U G22U U34C | 0.11 |

| Variant | self-cleavage |
| --- | --- |
| C8U A16G G40C U43G | 0.02 |
| C8A G21A A41G | 0.32 |
| C8G A12G A16C | 0.02 |
| C8U C13A C46G | 0.3 |
| C8U C10U A26G | 0.08 |
| C8G C18U G29U U43G | 0.03 |
| C8G C10G U38A A39G | 0 |
| C8G C10U G35C C46U | 0.02 |
| C8G G17C A24U G33U | 0.03 |
| C8G C15A A25U | 0.37 |
| C8U C10G G29U G44U | 0.03 |
| C8G A12C C23U | 0.03 |
| C8A G17A G22U | 0.17 |
| C8G A12U G40U A41U C42U | 0.02 |
| C8G A12U G35U | 0.11 |
| C8A C23A U43G | 0.02 |
| C8G U32A A41U | 0.01 |
| C8G G27A G30A U34A | 0.03 |
| C8G U9G A11U A41G | 0.01 |
| C8A G19A G36C | 0.27 |
| C8G U32A U38A C42G | 0.03 |
| C8G A11U C46A | 0.02 |
| C8G U9C G21A | 0.05 |
| C8G C13G G17A U28C G36U | 0.05 |

| Variant | self-cleavage |
| --- | --- |
| C8G A16U U28A | 0.08 |
| C8A U20C C46G | 0.18 |
| C8A U34G C46U | 0.1 |
| C8A U9G A16U G36U | 0.04 |
| C8A U20G G40U | 0.26 |
| C8G G27C U28A | 0.02 |
| C8G C10A G27A G33U U34G G36C | 0.01 |
| C8U A12U G21A C45A | 0.02 |
| C8U A26C C45U | 2.32 |
| C8G A12U G44U | 0.02 |
| C8U A41C C42A | 0.01 |
| C8G A24C U28C | 0.05 |
| C8G A14C G17A G27C C46U | 0.07 |
| C8G C15U C18U G21C G30C C37G | 0.08 |
| C8A U38A C42U | 0.22 |
| C8G A12G G17A G27U A39G | 0.01 |
| C8G A12U A26U | 0.15 |
| C8A G17U A41C | 0.14 |
| C8G G17C G21U | 0.24 |
| C8G A12G G17C U43G C46A | 0.01 |
| C8G A16G C37U | 0.11 |
| C8G G22A U32A | 0.01 |
| C8G U32A G40A | 0.02 |
